# ± gives the standard error. The list shows a part of the results.
# Molecular target: terminal deoxynucleotidyl transferase (calf thymus) (UniProt P06526)
# Experiment: TdT poly-dT extension signal (Cy3 hybridisation fluorescence, uncapped minus capped) (fluorescence a.u.); higher = more efficient initiation of TdT extension
# Details: initiator chemistry: 2'-O-methyl-RNA, free 3'-OH (5'-tethered via HEG linker)
# Procedure, shortened: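 Mono- to pentamer initiators were made by photolithographic in situ synthesis on glass on a hexaethylene glycol linker, each as uncapped and DMTr-dT-capped replicates. Arrays were extended with 0.2 u/μL calf thymus TdT and 100 μM dTTP in TdT buffer plus 0.25 mM CoCl2 at 37 °C for 120 min, hybridized with Cy3-labelled rA18 probe at 4 °C and scanned at 532 nm. Extension signal is mean uncapped minus mean capped (background) fluorescence.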
# Chain of UniProt P06526 (P06526 whole entry): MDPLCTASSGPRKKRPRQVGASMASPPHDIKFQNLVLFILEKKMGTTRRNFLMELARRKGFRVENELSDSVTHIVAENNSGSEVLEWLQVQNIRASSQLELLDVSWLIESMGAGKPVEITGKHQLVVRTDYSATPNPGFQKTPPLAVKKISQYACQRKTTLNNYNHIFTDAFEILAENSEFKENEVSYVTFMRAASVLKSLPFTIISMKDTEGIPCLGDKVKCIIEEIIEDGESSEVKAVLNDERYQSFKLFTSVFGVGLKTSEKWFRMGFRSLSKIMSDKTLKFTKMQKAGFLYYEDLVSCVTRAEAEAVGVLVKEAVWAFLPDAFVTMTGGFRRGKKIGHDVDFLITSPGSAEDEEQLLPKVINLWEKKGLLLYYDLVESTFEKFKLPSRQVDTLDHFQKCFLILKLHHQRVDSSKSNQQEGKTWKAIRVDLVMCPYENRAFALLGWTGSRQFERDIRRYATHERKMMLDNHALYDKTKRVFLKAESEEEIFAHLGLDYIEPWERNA
row,Sequence,TdT poly-dT extension signal
1,CGCGA,521 ± 66
2,CGUAC,482 ± 33
3,GGGUA,515 ± 18
4,GAGU,518 ± 58
5,CACA,425 ± 22
6,CGGAG,465 ± 66
7,UCUAG,296 ± 18
8,CGCC,633 ± 69
9,ACCCG,218 ± 24
10,CCAAU,578 ± 47
11,CUUC,363 ± 30
12,AAUG,175 ± 23
13,AUUGG,176 ± 11
14,AUAAC,590 ± 41
15,AUCGU,432 ± 41
16,AUUA,347 ± 29
17,AUCAG,458 ± 47
18,CGUGC,1220 ± 81
19,GUAUU,234 ± 13
20,GCGUA,498 ± 32
21,GAGAC,862 ± 91
22,UUUAC,399 ± 22
23,AAUGA,403 ± 20
24,CUCAA,1050 ± 96
25,GCGU,492 ± 29

row,Sequence,TdT poly-dT extension signal
1,GUACG,337 ± 57
2,UACGA,548 ± 56
3,GGUUU,235 ± 14
4,GGUCG,185 ± 10
5,UGCGA,538 ± 49
6,UGCGG,324 ± 29
7,AAGUC,522 ± 33
8,AAUAG,440 ± 42
9,AAUA,536 ± 37
10,AGCAC,784 ± 48
11,UACGC,1190 ± 92
12,UCGUA,502 ± 30
13,UAGGC,1110 ± 68
14,CCUCG,256 ± 17
15,GUGGU,461 ± 28
16,CUAAC,634 ± 40
17,AACCG,293 ± 26
18,GUCUG,218 ± 15
19,AAAA,1010 ± 74
20,GUGUA,427 ± 58
21,GAGG,414 ± 37
22,CAAGC,1300 ± 67
23,CGAGG,359 ± 19
24,GUAGU,420 ± 54
25,UCGCU,401 ± 25

row,Sequence,TdT poly-dT extension signal
1,GUAGG,360 ± 30
2,CUGAA,834 ± 120
3,UGUCU,243 ± 37
4,AGAUU,308 ± 27
5,AAGG,383 ± 41
6,CGCCA,408 ± 65
7,AUUGU,280 ± 17
8,AUAG,369 ± 22
9,ACGAA,869 ± 62
10,AGCGA,556 ± 38
11,UUAAU,420 ± 35
12,CACGC,1090 ± 67
13,ACUGU,377 ± 18
14,CCGCA,451 ± 46
15,CGUAU,326 ± 32
16,GGAUU,273 ± 21
17,GUUG,156 ± 11
18,GUAAU,383 ± 30
19,GGGA,688 ± 52
20,UAAUG,230 ± 20
21,GGUAU,366 ± 40
22,ACCC,408 ± 21
23,CAUU,293 ± 19
24,CAGGA,655 ± 39
25,GUGAU,329 ± 28

row,Sequence,TdT poly-dT extension signal
1,UGCAU,392 ± 22
2,UGGAG,365 ± 53
3,GUCGC,1070 ± 67
4,GAUCG,205 ± 20
5,GAUUG,154 ± 14
6,UUAG,222 ± 27
7,UACCU,308 ± 29
8,ACUCA,399 ± 32
9,CCCCC,425 ± 34
10,AUAGG,266 ± 22
11,GGACG,296 ± 31
12,CGGGU,522 ± 34
13,CUAAU,406 ± 31
14,AACAC,819 ± 56
15,CUGGU,412 ± 22
16,AUGGG,209 ± 17
17,AGGC,1000 ± 83
18,UUGCU,326 ± 35
19,AUGUU,232 ± 12
20,CAAAC,962 ± 130
21,UCUUU,210 ± 24
22,UUUAU,262 ± 11
23,AUGC,1000 ± 81
24,UCCCG,210 ± 13
25,CUGC,1000 ± 130

row,Sequence,TdT poly-dT extension signal
1,AAGCC,654 ± 48
2,UUCAU,442 ± 20
3,CUGUC,440 ± 40
4,CAGAG,471 ± 47
5,GAAAC,1000 ± 140
6,CCGAA,952 ± 65
7,AACGC,975 ± 64
8,GUCUU,340 ± 34
9,UAAAG,531 ± 53
10,CGUUC,353 ± 30
11,UACAG,525 ± 27
12,ACCCU,321 ± 37
13,CUCGG,344 ± 47
14,CCAAA,1170 ± 64
15,CCCU,310 ± 33
16,GUUAC,497 ± 25
17,AUGUC,428 ± 44
18,UAUAC,496 ± 31
19,GCAUC,486 ± 41
20,CGCUC,570 ± 40
21,CCCGC,1200 ± 97
22,AUUAA,529 ± 25
23,GUCUC,589 ± 43
24,GGAAC,801 ± 70
25,UUACC,287 ± 25

row,Sequence,TdT poly-dT extension signal
1,ACGGU,482 ± 34
2,CGGGG,299 ± 15
3,CGAGA,666 ± 57
4,AGACA,389 ± 38
5,UCAAC,698 ± 93
6,CAUCA,358 ± 63
7,GUAGA,712 ± 70
8,GUUU,214 ± 20
9,CACGG,422 ± 55
10,CGGGC,1070 ± 81
11,GUACC,398 ± 28
12,AGGGG,364 ± 40
13,CCUGG,221 ± 18
14,GUGCA,383 ± 27
15,GCAGU,516 ± 41
16,GAGAA,910 ± 76
17,AAACU,288 ± 30
18,UUUUU,482 ± 25
19,GACCU,325 ± 38
20,GCAGG,404 ± 44
21,UGAC,619 ± 92
22,ACCCC,498 ± 27
23,GACCC,451 ± 37
24,UGUAU,273 ± 33
25,AUACA,316 ± 33

row,Sequence,TdT poly-dT extension signal
1,CGCCU,375 ± 17
2,CAGCG,334 ± 26
3,UGCCA,330 ± 31
4,AUGGC,1030 ± 83
5,AGUUC,403 ± 30
6,GAGGC,1040 ± 84
7,AGGGA,636 ± 49
8,GGGUG,356 ± 12
9,AGUUA,382 ± 20
10,UUCGC,1170 ± 79
11,GUUAG,258 ± 20
12,UACCG,248 ± 33
13,UGUAA,515 ± 38
14,AGAC,565 ± 55
15,ACGAC,610 ± 53
16,CAUG,261 ± 26
17,CUUGU,405 ± 29
18,GACAG,523 ± 35
19,UUGGC,900 ± 58
20,AAUGU,335 ± 20
21,CAACU,313 ± 34
22,CAAUC,501 ± 34
23,GCGCU,323 ± 25
24,GUAC,547 ± 50
25,CAUCU,240 ± 15

row,Sequence,TdT poly-dT extension signal
1,AUCUA,549 ± 22
2,UUAAG,388 ± 34
3,AAUC,379 ± 27
4,CAAA,1010 ± 77
5,UGCCG,220 ± 14
6,UGGCG,298 ± 49
7,GUGUG,186 ± 13
8,UUAUA,375 ± 34
9,CUGA,486 ± 62
10,AAAGG,370 ± 28
11,AAGUG,222 ± 24
12,CAAG,600 ± 36
13,GCACG,295 ± 16
14,UCGCA,463 ± 31
15,GCGAU,449 ± 42
16,ACUG,278 ± 17
17,UCAUC,439 ± 34
18,UAUC,366 ± 18
19,ACGU,432 ± 32
20,GAAUU,321 ± 24
21,AAUAU,312 ± 32
22,GGUUG,148 ± 9.2
23,GGCAA,925 ± 89
24,GGCAG,414 ± 45
25,AUUCU,281 ± 19

row,Sequence,TdT poly-dT extension signal
1,AACGA,620 ± 72
2,GCAG,492 ± 30
3,AGAUA,525 ± 31
4,CCUU,343 ± 26
5,UUGCA,327 ± 16
6,GAAUG,223 ± 21
7,CGACG,340 ± 17
8,CGUGU,349 ± 21
9,AAAUG,230 ± 12
10,CUGUA,359 ± 18
11,GCGUC,542 ± 34
12,CGUUU,232 ± 14
13,UAAAU,517 ± 37
14,AGGAC,668 ± 50
15,GGCGA,646 ± 96
16,UUAGG,271 ± 26
17,AUCCC,442 ± 30
18,GGCUC,639 ± 31
19,CUUGG,179 ± 20
20,GGUGU,484 ± 37
21,ACUGC,922 ± 88
22,CAUGC,1140 ± 140
23,CGAUC,441 ± 30
24,CUUU,233 ± 21
25,UCAAG,688 ± 49

row,Sequence,TdT poly-dT extension signal
1,GUGU,411 ± 18
2,UCUAC,504 ± 25
3,GUUGG,187 ± 14
4,AUAUU,250 ± 11
5,CUGCC,503 ± 48
6,CUAUU,224 ± 30
7,GAUUC,423 ± 31
8,GGGCG,330 ± 32
9,UUCCU,241 ± 17
10,UGUG,149 ± 15
11,AUGUG,141 ± 13
12,GCCGC,999 ± 83
13,GCACA,482 ± 81
14,UUAA,535 ± 45
15,CUUAU,257 ± 25
16,ACAU,483 ± 30
17,CUAAA,792 ± 51
18,CAUUA,375 ± 18
19,ACCAU,456 ± 28
20,UCCU,351 ± 31
21,AAUUA,354 ± 22
22,AAUUC,348 ± 32
23,GGUUC,426 ± 69
24,AUCGA,487 ± 30
25,GUGCC,523 ± 29

row,Sequence,TdT poly-dT extension signal
1,CUUUG,145 ± 13
2,AUUUG,120 ± 8.5
3,UACU,225 ± 13
4,CCGG,326 ± 47
5,UAGAA,1060 ± 95
6,GAAGA,957 ± 160
7,GCCGA,606 ± 70
8,UCUGU,319 ± 22
9,UGCCC,519 ± 28
10,GAAAG,560 ± 51
11,GAAAU,512 ± 38
12,GCCUC,636 ± 30
13,GCGUG,298 ± 34
14,AUCG,210 ± 18
15,CAAGU,608 ± 48
16,CGCAU,490 ± 26
17,ACUUU,291 ± 24
18,GUAUG,157 ± 12
19,GCGGC,844 ± 55
20,UCCGA,597 ± 38
21,CGCCC,432 ± 29
22,UAGGG,313 ± 21
23,CGGCU,341 ± 24

# Source: the supplement of paper PMC8291772
